This note sets out measurements from PMC4336329 (PLoS ONE, 2015).

Screen size: about 310,000 compounds; about 14,000 (4.5%) showed an effect of 50% or more. The effect is printed as a negative number. The list shows a part of the results.
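Note: peak tail current of the secondary pulse compared with the same well before compound.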

In this experiment the target is human ether-à-go-go-related gene (hERG) potassium channel (human, UniProt Q12809). As to the kind of experiment: primary screen, population patch clamp on CHO cells stably expressing hERG.
Chain of human ether-à-go-go-related gene (hERG) potassium channel (Q12809 whole entry, looked up): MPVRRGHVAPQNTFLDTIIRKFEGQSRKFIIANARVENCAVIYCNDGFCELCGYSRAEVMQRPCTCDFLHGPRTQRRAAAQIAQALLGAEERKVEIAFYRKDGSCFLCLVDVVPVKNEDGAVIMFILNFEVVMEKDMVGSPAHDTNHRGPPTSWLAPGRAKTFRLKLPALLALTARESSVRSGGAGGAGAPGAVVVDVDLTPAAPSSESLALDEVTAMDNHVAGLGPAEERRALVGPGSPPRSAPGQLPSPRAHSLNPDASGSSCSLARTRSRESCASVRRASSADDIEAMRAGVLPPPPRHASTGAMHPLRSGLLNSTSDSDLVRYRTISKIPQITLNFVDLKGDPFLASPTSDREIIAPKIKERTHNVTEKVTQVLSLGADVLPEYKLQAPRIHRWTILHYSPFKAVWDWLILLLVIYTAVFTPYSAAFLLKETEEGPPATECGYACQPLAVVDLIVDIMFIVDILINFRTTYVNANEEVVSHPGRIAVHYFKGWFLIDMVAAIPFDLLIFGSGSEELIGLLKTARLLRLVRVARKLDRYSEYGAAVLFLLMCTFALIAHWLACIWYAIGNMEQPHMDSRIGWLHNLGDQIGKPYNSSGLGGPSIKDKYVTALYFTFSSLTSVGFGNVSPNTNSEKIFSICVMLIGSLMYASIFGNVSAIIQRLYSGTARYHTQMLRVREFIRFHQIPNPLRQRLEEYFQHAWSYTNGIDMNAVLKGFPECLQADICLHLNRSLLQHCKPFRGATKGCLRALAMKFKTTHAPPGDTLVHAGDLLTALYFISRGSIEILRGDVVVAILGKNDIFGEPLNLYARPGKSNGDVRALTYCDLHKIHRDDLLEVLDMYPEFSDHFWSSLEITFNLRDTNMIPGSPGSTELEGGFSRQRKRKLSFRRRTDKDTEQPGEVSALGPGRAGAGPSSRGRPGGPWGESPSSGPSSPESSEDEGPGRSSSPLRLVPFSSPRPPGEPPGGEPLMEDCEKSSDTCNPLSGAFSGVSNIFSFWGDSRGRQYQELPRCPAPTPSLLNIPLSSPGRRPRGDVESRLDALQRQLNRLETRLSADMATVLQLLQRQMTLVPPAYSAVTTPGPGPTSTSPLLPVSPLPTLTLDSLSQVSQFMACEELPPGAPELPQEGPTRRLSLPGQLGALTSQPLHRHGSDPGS
As to `CCOC(=O)CN(c1ccccc1C)S(=O)(=O)c1ccc(Cl)cc1`, the “hERG current change (%, negative = inhibition) at 10uM” value is -20.8%.
Take `COC(=O)Cc1c(C)nc2nc(-c3cccnc3)[nH]n2c1=O`: the “hERG current change (%, negative = inhibition) at 10uM” value was 9.77%.
Regarding `Nc1c(-c2ccc(Cl)cc2)cnn1-c1cccc(C(F)(F)F)c1`, the “hERG current change (%, negative = inhibition) at 10uM” value is reported as -7.57%.
On to `O=C1c2ccccc2C(O)(Cc2ccccc2)N1CCCN1CCOCC1` (centres unmarked), for which the “hERG current change (%, negative = inhibition) at 10uM” value was determined as 17.9%.
Turning to `CCN(CC)c1ccc(/C=N/NC(=O)CCC(=O)NCc2ccccc2)c(O)c1`, the “hERG current change (%, negative = inhibition) at 10uM” value is on record as -12.9%.
As to `CN(c1ccccc1C(=O)Nc1ccc(S(=O)(=O)N2CCOCC2)cc1)S(C)(=O)=O`, the “hERG current change (%, negative = inhibition) at 10uM” value came out at 7.91%.
`Cc1ccc(NC(=O)CC2NCCN(Cc3ccccc3)C2=O)cc1` (centres unmarked): the “hERG current change (%, negative = inhibition) at 10uM” value is reported as -16.5%.
For the molecule `CC(C)(C)c1ccc(OCC(=O)NCC(c2cccs2)N2CCOCC2)cc1` (centres unmarked), the “hERG current change (%, negative = inhibition) at 10uM” value was -37%.
For the molecule `Cc1ccc(CC2C(=O)N(c3ccccc3)C(=O)C2C)cc1` (centres unmarked), the “hERG current change (%, negative = inhibition) at 10uM” value came out at 6.5%.
As to `CC1CCCCN1CCCNc1ccc(C(CC(N)=O)NC(=O)Cc2ccc(Br)cc2)cc1[N+](=O)[O-]` (centres unmarked), the “hERG current change (%, negative = inhibition) at 10uM” value amounted to 26.6%.
Next, `CC12C=CC(=O)C=C1CCC1C3CCC(O)(C(=O)CO)C3(C)CC3OC312` (centres unmarked): 6.22%; `CCN(c1ccccc1)S(=O)(=O)c1cc(NC(=O)Nc2ccccc2C#N)ccc1Cl`: -34.2%; `CCC(=O)N1CCN(c2cc(N3CCN(C)CC3)c(F)cc2[N+](=O)[O-])CC1`: -15.4%.
For `COc1cc(OC)cc(-c2c(-c3ccsc3)c3cc(Br)ccc3n2C)c1`, the “hERG current change (%, negative = inhibition) at 10uM” value was found to be 23.8%.
Turning to `COc1ccc(C2C(C(=O)N3CCC4(CC3)OCCO4)CC(=O)N2c2ccc(OC)cc2)cc1` (centres unmarked), the “hERG current change (%, negative = inhibition) at 10uM” value was -6.88%.
In the case of `CCOC(=O)C1CCCN(c2c(NCCCN(C)Cc3ccccc3)c(=O)c2=O)C1` (centres unmarked), the “hERG current change (%, negative = inhibition) at 10uM” value was -9.63%.
Turning to `Cc1ccc(S(=O)(=O)N2CCC(C(=O)OCC(=O)N(CCC#N)c3ccc(F)cc3)CC2)cc1C`, the “hERG current change (%, negative = inhibition) at 10uM” value is on record as -33.6%.
The value for `c1ccc2sc(SCSc3nc4ccccc4s3)nc2c1` was 15.8%; that for `CCCNC(=O)CCn1nc(-c2ccc(Cl)cc2)c2ccccc2c1=O` was -20.4%; that for `Cc1ccc(N2C(=O)C3ON(c4ccccc4)C(c4ccncc4)C3C2=O)c(C)c1` (centres unmarked) was -7.87%.
Turning to `CCN(Cc1ccc(OC)c(COC)c1)CC1CCCN(CCc2cccc(F)c2)C1` (centres unmarked), the “hERG current change (%, negative = inhibition) at 10uM” value is on record as -67.7%.
As to `COc1cc(-c2nc3ccccn3c2/N=C/c2cc(OC)c(O)cc2Cl)ccc1O`, the “hERG current change (%, negative = inhibition) at 10uM” value was found to be 7.75%.
As for `CCCC(=O)Nc1cccc(NC(=O)c2ccc([N+](=O)[O-])cc2Cl)c1`, the “hERG current change (%, negative = inhibition) at 10uM” value is -14.5%.
As for `Cl.O=[N+]([O-])c1ccc(N2CCNCC2)cc1N1CCCCCC1`, the “hERG current change (%, negative = inhibition) at 10uM” value is listed as -42.2%.
Next, `COc1cccc(NC(=O)c2ccccc2Oc2ccccc2)c1`: 5.63%; `CCc1cc2c(=O)c(-c3ccc4c(c3)OCCO4)c(C)oc2cc1OS(C)(=O)=O`: 1.39%.
Regarding `O=C(CSc1ccc(-c2ccc(F)cc2)nn1)Nc1ccc2c(c1)OCCO2`, the “hERG current change (%, negative = inhibition) at 10uM” value is recorded as -11.3%.
In the case of `COc1ccc(C(=O)NN(c2ccccc2)c2ccccc2)cc1`, the “hERG current change (%, negative = inhibition) at 10uM” value is reported as -1.19%.
On to `CC(C)N(C(C)C)S(=O)(=O)c1ccc(NC(=O)c2cnccn2)cc1`, for which the “hERG current change (%, negative = inhibition) at 10uM” value was 1.93%.
With `Cc1c(-c2nc(N)nc(Nc3ccc(F)cc3)n2)oc2ccccc12`, the “hERG current change (%, negative = inhibition) at 10uM” value was determined as 9.41%.
Next, `O=C(NC1CCCCC1)C(c1ccc(F)cc1)N(CCN1CCOCC1)C(=O)c1ccc(-c2ccccc2)[nH]1` (centres unmarked): 24.4%; `CCOc1ccc(-c2nc(N)ncc2-c2ccccc2OC)c(O)c1`: -30.2%; `COc1ccc(Br)cc1CNC(=O)c1ccc2c(c1)N(C)CCS2`: -8.73%.
The value for `O=C(COC(=O)CCC(=O)c1cccs1)NC1CCCCC1` was 1.55%; that for `Cc1cccc(C)c1OCC(O)CNC(C)C.Cl` (centres unmarked) was 5.06%.
Next, `CCOC(=O)CN1C=C(c2ccc3ccccc3n2)C(C[N+](=O)[O-])c2ccccc21` (centres unmarked): -16%; `C/C(=N/NC(=O)c1ccc2c(c1)OCO2)c1cccc(NC(=O)C(C)(C)C)c1`: 1.11%.
As to `CCC(CC)C(=O)Nc1cc([N+](=O)[O-])ccc1Cl`, the “hERG current change (%, negative = inhibition) at 10uM” value is -4.02%.
On to `O=C(NC1(C(F)(F)F)NC(=O)N(Cc2ccco2)C1=O)c1cccnc1` (centres unmarked), for which the “hERG current change (%, negative = inhibition) at 10uM” value was found to be 7.28%.
The value for `O=C(NCc1ccccc1)C1CCCN(S(=O)(=O)c2ccc(Br)cc2)C1` (centres unmarked) was 23.4%; that for `CC(=O)c1ccc(N2CCCCC2)c(F)c1` was 28%.
As for `Cc1c(C=C2C(=O)N(C)C(=O)N(C)C2=O)c(=O)n(-c2ccccc2)n1C`, the “hERG current change (%, negative = inhibition) at 10uM” value was determined as 5.86%.
Consider `COC(=O)c1ccccc1NC(=O)C12CC3CC(C1)CC(n1cnc(Cl)n1)(C3)C2`, for which the “hERG current change (%, negative = inhibition) at 10uM” value is -38.5%.
`C/C(=C(\C#N)C(=O)NCCCN1CCOCC1)N(C)C`: the “hERG current change (%, negative = inhibition) at 10uM” value amounted to 9.66%.
Regarding `Cc1c(CC(=O)O)c(=O)oc2c(C)c3occ(-c4ccccc4)c3cc12`, the “hERG current change (%, negative = inhibition) at 10uM” value was found to be 12.1%.
`O=C(c1ccc2c(c1)CCN2S(=O)(=O)c1ccccc1)N1CCN(c2ccc(F)cc2)CC1`: the “hERG current change (%, negative = inhibition) at 10uM” value is listed as -15.5%.
For the molecule `NS(=O)(=O)c1ccc(CNC(=O)c2cccc(S(=O)(=O)N3CCc4ccccc43)c2)cc1`, the “hERG current change (%, negative = inhibition) at 10uM” value is on record as 2.44%.
For `CCOC(=O)C1CCN(C(=O)Cc2c(F)cccc2Cl)CC1`, the “hERG current change (%, negative = inhibition) at 10uM” value turned out to be 8.56%.
Consider `O=C(COc1ccc2cc(Br)ccc2c1Br)N1CCOCC1`, for which the “hERG current change (%, negative = inhibition) at 10uM” value came out at 3.11%.
With `O=C1C=C(c2ccc3[nH]ccc3c2)C[C@@H](c2ccc(Cl)cc2)C1`, the “hERG current change (%, negative = inhibition) at 10uM” value is 5.06%.
In the case of `CC(C)(O)C#Cc1ccc(C(=O)NC(CCCNC(N)=O)C(=O)O)s1` (centres unmarked), the “hERG current change (%, negative = inhibition) at 10uM” value is on record as 12.4%.
On to `COc1cccc(NC(=O)CNC(=O)[C@@H]2Cc3ccccc3CN2C(=O)OC(C)(C)C)c1`, for which the “hERG current change (%, negative = inhibition) at 10uM” value amounted to 11%.
Next, `CN(C)c1ccc(CNCC2CCCO2)cc1.Cl` (centres unmarked): 10.5%; `O=C(Cc1cc(=O)[nH][nH]1)N/N=C/C=C/c1ccccc1`: 8.93%.
With `COC(=O)COc1ccc(S(=O)(=O)N2CCOCC2)cc1`, the “hERG current change (%, negative = inhibition) at 10uM” value amounted to 2.77%.
For `O=C(NCCc1ccc(Cl)cc1)C1CCN(c2ncccn2)CC1`, the “hERG current change (%, negative = inhibition) at 10uM” value is recorded as 0.669%.
`CCOC(=O)c1cc(-c2ccc(C)cc2)n(CC(=O)NCc2ccco2)c1C`: the “hERG current change (%, negative = inhibition) at 10uM” value was determined as 12.2%.
Regarding `O=C(Nc1ccccc1C(=O)NCCCN1CCOCC1)c1ccccc1`, the “hERG current change (%, negative = inhibition) at 10uM” value is reported as 6.8%.
Next, `Cc1cc(F)ccc1NS(=O)(=O)c1c(C(=O)N2CCOCC2)c(C)n(C)c1C`: 4.2%.
`CS(=O)(=O)N(CCC#N)Cc1ccc(C=O)o1`: the “hERG current change (%, negative = inhibition) at 10uM” value came out at 15.5%.
With `CCC(C)(C)n1nnnc1C(C(C)C)N(Cc1ccco1)Cc1cc2cc3c(cc2[nH]c1=O)OCO3` (centres unmarked), the “hERG current change (%, negative = inhibition) at 10uM” value was -2.62%.
As for `Cc1cc(C)cc(OCC(=O)NNC(=O)c2cc3ccccc3o2)c1`, the “hERG current change (%, negative = inhibition) at 10uM” value stood at 14.1%.
Turning to `Cc1cccc(N(C)S(=O)(=O)c2ccc(-c3cnc(C4CC4)o3)cc2)c1`, the “hERG current change (%, negative = inhibition) at 10uM” value amounted to 9.02%.
With `Cc1ccc(SCC(=O)Nc2cccc(C)c2)cc1`, the “hERG current change (%, negative = inhibition) at 10uM” value came out at 47.2%.
Next, `COC(=O)c1cnc2ccccc2n1`: 14.6%; `Cc1cc(OCc2cc(C(=O)NCC3(C)COC3)no2)cc(C)c1Cl`: -16.4%.
In the case of `COc1ccc(C(=O)OCC(=O)NC(=O)NC2CCCC2)cc1OC`, the “hERG current change (%, negative = inhibition) at 10uM” value is -8.44%.
Take `O=C(NCN1CCCCC1)c1cccnc1`: the “hERG current change (%, negative = inhibition) at 10uM” value turned out to be 5.75%.
For `COc1cc(-c2nc(-c3ccncc3)no2)cc(OC)c1OC`, the “hERG current change (%, negative = inhibition) at 10uM” value is on record as 16.6%.
The value for `CC(=O)N/C(=C\c1ccccc1)C(=O)N1CCOCC1` was 20.1%; that for `O=C(N/N=C(\Cc1ncc[nH]1)c1ccccc1)c1ccccc1` was 19.4%.
As to `CC(Oc1ccc(F)cc1)C(=O)Nc1cc(C(F)(F)F)ccc1-n1cncn1` (centres unmarked), the “hERG current change (%, negative = inhibition) at 10uM” value is reported as -33.9%.
`COc1cc(OC)cc(C(=O)Nc2cc(NC(=O)c3ccco3)ccc2OC)c1`: the “hERG current change (%, negative = inhibition) at 10uM” value is recorded as -11.9%.
The value for `Cc1c(C(=O)O)cccc1-n1c(C)cc(/C=C(/C#N)C(=O)NCc2ccccc2)c1C` was 11.2%.
With `CC(C)(O)C#Cc1ccc(C(=O)N2CCC(CCC(=O)NC3CC3)CC2)cc1`, the “hERG current change (%, negative = inhibition) at 10uM” value is given as -26.4%.
Turning to `CCOc1ccc(/C(CC)=N/NC(=O)C2(C)CC2(Br)Br)cc1` (centres unmarked), the “hERG current change (%, negative = inhibition) at 10uM” value is on record as 11.9%.
On to `C[C@@H]1CN(C2CCC(C#N)(c3ccc(F)cc3)CC2)CC[C@]1(C(=O)O)c1ccccc1.Cl` (some centres unmarked), for which the “hERG current change (%, negative = inhibition) at 10uM” value is -33.2%.
For `COc1ccc(C(=O)Nc2ccccc2SCc2cc(=O)n3nc(C)sc3n2)cc1OC`, the “hERG current change (%, negative = inhibition) at 10uM” value worked out at 8.33%.
Next, `COc1ccccc1NC(=O)Nc1nnc(CC(=O)Nc2cccc(C)c2)s1`: 7.57%.
Turning to `O=c1[nH]c2ccc(S(=O)(=O)Nc3ccccc3O)cc2[nH]1`, the “hERG current change (%, negative = inhibition) at 10uM” value was found to be 25.8%.
For the molecule `CN(C)C(/C=C/Nc1ccc([N+](=O)[O-])cc1)=C(C#N)C#N`, the “hERG current change (%, negative = inhibition) at 10uM” value is reported as -33%.
For `COC(=O)C1=C(c2cc3ccccc3o2)C[C@@H]2CC[C@H]1N2C(=O)NC1CCCCC1`, the “hERG current change (%, negative = inhibition) at 10uM” value is reported as -20%.
The value for `COc1ccccc1C(=O)NCCC(=O)NCC(C)(C)N1CCOCC1` was 16.6%.
Turning to `O=C(N/N=C/c1c[nH]c2ccc(Br)cc12)C1CC1`, the “hERG current change (%, negative = inhibition) at 10uM” value is 4.6%.
Next, `COC(=O)c1ccc(CSc2nnc(NC(=O)C3CC(=O)N(Cc4ccc(C)cc4)C3)s2)cc1` (centres unmarked): 8.78%.
For the molecule `CCOC(=O)c1ccc(NC(=O)CSc2nncn2-c2cccnc2)cc1`, the “hERG current change (%, negative = inhibition) at 10uM” value amounted to 6.93%.
